# From the supplement of paper PMC9446081
# Among all 39,000 compounds or so, about 220 (0.56%) showed activity. This is one part of the list.
# Test system: Escherichia coli K-12 BW25113
# Assay: relative growth (OD600 normalised to plate interquartile mean) (fraction); higher = less growth inhibition, active = 0.2 or less
# Conditions: 50 µM; LB; incubation time: overnight (16-24 h)
# 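Further: static incubation at 37 °C against the wild-type strain, values averaged over two biological replicates.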
row,Compound,relative growth
1,C[C@@H]1CN([C@H](C)CO)C(=O)c2cccc(NS(=O)(=O)c3ccccc3)c2O[C@H]1CN(C)Cc1ccc(-c2ccccc2)cc1,inactive: 1.04
2,Cc1noc(C)c1NC(=O)Nc1ccc2c(c1)C(=O)N([C@@H](C)CO)C[C@H](C)[C@H](CN(C)S(=O)(=O)c1cccs1)OCCCC[C@@H](C)O2,inactive: 0.995
3,COc1ccccc1-c1cnc2c(c1)C(=O)N([C@H](C)CO)C[C@H](C)[C@H](CN(C)C(=O)c1cccnc1)O2,inactive: 0.993
4,COc1ccc(NC(=O)N(C)C[C@@H]2OCCCC[C@@H](C)Oc3ccc(NS(=O)(=O)c4cccs4)cc3C(=O)N([C@H](C)CO)C[C@H]2C)cc1,inactive: 1
5,COc1ccc(S(=O)(=O)Nc2ccc3c(c2)CC(=O)N([C@H](C)CO)C[C@@H](C)[C@@H](CN(C)C)O3)cc1,inactive: 0.987
6,COc1ccc(CN(C)C[C@@H]2OCCCC[C@H](C)Oc3ccc(NC(=O)Nc4ccc5c(c4)OCO5)cc3C(=O)N([C@H](C)CO)C[C@@H]2C)cc1,inactive: 0.974
7,O=C(O)[C@H](O)c1ccccc1,inactive: 1.01
8,COc1cc(C(=O)NCc2ccc(OCCN(C)C)cc2)cc(OC)c1OC.Cl,inactive: 1.02
9,CCOC(=O)N1C(=O)[C@@]2(CCCOC2)N(c2ccc(C)cc2)C1=S.CCOC(=O)N1C(=O)[C@]2(CCCOC2)N(c2ccc(C)cc2)C1=S,inactive: 1.02
10,CCOC(=O)[C@H](CCc1ccccc1)N[C@@H](C)C(=O)N1C(=O)N(C)C[C@H]1C(=O)O,inactive: 1.02
11,C[C@@H]1CCCCO[C@@H](CN(C)C(=O)Nc2ccccc2)[C@H](C)CN([C@H](C)CO)C(=O)c2cc(NC(=O)C3CCCCC3)ccc2O1,inactive: 1.01
12,C[C@H](CO)N1C[C@H](C)[C@@H](CN(C)Cc2ccncc2)Oc2ccc(NC(=O)Cn3cnnn3)cc2CC1=O,inactive: 1
13,COCC#Cc1ccc2c(c1)O[C@H](CN(C)Cc1ccccc1F)[C@H](C)CN([C@H](C)CO)S2(=O)=O,inactive: 1.02
14,Cc1ccc(S(=O)(=O)Nc2ccc3c(c2)C(=O)N([C@H](C)CO)C[C@@H](C)[C@@H](CN(C)C(=O)C2CCCCC2)OCCCC[C@H](C)O3)cc1,inactive: 1
15,C[C@H]1CCCCO[C@H](CN(C)Cc2ccc3c(c2)OCO3)[C@@H](C)CN([C@@H](C)CO)C(=O)c2cc(NS(=O)(=O)c3ccccc3)ccc2O1,inactive: 1.04
16,OC[C@H]1O[C@@H](Oc2cccc(O)c2CCCc2ccc(O)cc2)[C@@H](O)[C@@H](O)[C@@H]1O,inactive: 1.02
